# Experimental data: the supplement of paper PMC4166925
# ± gives the standard deviation of the averaged measurements. In all, about 33,000 sequences were measured (“E-score (dimensionless, -0.5 to 0.5)”: median about -0.049, highest 2% from about 0.37 on). This is one part of the list.
# Tested on: T1, PmTbr T-box DNA-binding domain (GST fusion)
# T1 sequence: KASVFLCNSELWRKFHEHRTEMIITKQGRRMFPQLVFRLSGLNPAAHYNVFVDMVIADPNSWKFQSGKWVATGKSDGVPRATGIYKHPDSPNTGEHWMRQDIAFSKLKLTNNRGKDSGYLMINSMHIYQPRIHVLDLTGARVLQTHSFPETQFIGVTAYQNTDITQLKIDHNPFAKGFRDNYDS
# Experiment: PBM E-score of 8-mer (E-score (dimensionless, -0.5 to 0.5)); Tbr is Tbrain of the sea star Patiria miniata (Pm) or the sea urchin Strongylocentrotus purpuratus (Sp); higher = stronger binding preference; most listed sequences are background and not binding sites
# Settings: the construct has about 5 more residues each side
# In short: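 Universal Agilent oligonucleotide arrays, made double-stranded by primer extension, were incubated with 200 nM GST-fused Tbr T-box DNA-binding domain in PBS (pH 7.5). The protein was expressed in BL21 E. coli at 20 °C and purified by glutathione affinity chromatography. After scanning and quantification, the Universal PBM Analysis Suite assigned an enrichment E-score to each ungapped 8-mer, averaged over duplicate arrays.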
row,Sequence,PBM E-score of 8-mer
1,GCGTCACA,0.307 ± 0.014
2,ACGTCGGC,0.00644 ± 0.054
3,CCTCCAAA,-0.206 ± 0.018
4,ACCGCACA,0.0956 ± 0.021
5,AAAGGCTA,-0.25 ± 0.021
6,ACCTATTC,0.0263 ± 0.025
7,GTCATTGA,-0.165 ± 0.021
8,AAATCGGA,-0.106 ± 0.047
9,GATTCTAA,-0.138 ± 0.0011
10,AAGTCCGG,-0.166 ± 0.026
11,GTGGTGAA,0.153 ± 0.0049
12,TGCAACCA,-0.121 ± 0.053
13,CCTGGACA,-0.0304 ± 0.0074
14,CTGCACCA,-0.0587 ± 0.033
15,CCAGGCAA,-0.165 ± 0.011
16,CCTAGTAC,-0.14 ± 0.071
17,AGCGAGAC,0.0463 ± 0.032
18,CTTTTGTA,-0.189 ± 0.047
19,ACGACGGG,-0.0262 ± 0.074
20,CTCATGCC,-0.0878 ± 0.1
21,CAGTAACC,0.107 ± 0.0031
22,ATTCCCCA,0.0529 ± 0.071

row,Sequence,PBM E-score of 8-mer
1,GGTTATCA,0.0372 ± 0.034
2,CTTCTGGC,-0.0431 ± 0.0062
3,AACTTTGT,0.102 ± 0.084
4,CACGGGCA,-0.054 ± 0.0068
5,ATCACTTC,0.293 ± 0.015
6,AGACCCTC,-0.0721 ± 0.039
7,CCCTTAAC,-0.0895 ± 0.049
8,CGTGGAAG,0.00548 ± 0.012
9,CGCCTTAA,0.102 ± 0.025
10,GGGGGACA,-0.192 ± 0.053
11,GGACCTAA,-0.0476 ± 0.0062
12,CATTCACG,0.229 ± 0.041
13,GGTGTGGA,0.432 ± 0.015
14,AGAGGTCA,-0.0997 ± 0.006
15,CGCCGTGA,0.0902 ± 0.039
16,CACGGGGC,-0.0328 ± 0.01
17,ATATAATA,-0.307 ± 0.026
18,GGGTAACA,0.218 ± 0.064
19,CACGCGTC,0.277 ± 0.041
20,CGCCATGC,-0.00622 ± 0.076
21,CAGAATGA,-0.269 ± 0.049
22,GAAATGAA,0.0917 ± 0.012

row,Sequence,PBM E-score of 8-mer
1,ATCCTTGC,-0.0517 ± 0.022
2,AACCATTG,-0.14 ± 0.016
3,CCAAAGCA,-0.0538 ± 0.051
4,AATTACCC,-0.193 ± 0.032
5,CCAGAACC,-0.246 ± 0.022
6,CCCTAGCA,0.0225 ± 0.093
7,GCTCTGCC,-0.0653 ± 0.041
8,AGCTTGGG,-0.129 ± 0.044
9,GGTTTGCA,0.0665 ± 0.055
10,CGACGAAG,0.135 ± 0.016
11,GTGTAGAA,0.164 ± 0.051
12,CTATAGAC,-0.218 ± 0.0032
13,ACTACCTA,-0.155 ± 0.017
14,CATTGAGA,0.184 ± 0.024
15,GGATTCCC,-0.18 ± 0.031
16,GGGTTAAC,-0.0918 ± 0.013
17,CAGCGTCA,0.0544 ± 0.014
18,CCAGGTCA,-0.0521 ± 0.032
19,AGCAAACA,0.0237 ± 0.023
20,TGGCTCAA,0.104 ± 0.079
21,AATCTGAT,-0.141 ± 0.16
22,CCTCTTAC,-0.0159 ± 0.024

row,Sequence,PBM E-score of 8-mer
1,CGTTCAAA,0.0323 ± 0.058
2,CATTGCGA,-0.0207 ± 0.036
3,AGTTCCTG,0.0662 ± 0.015
4,ACCAGTTA,-0.16 ± 0.033
5,CGCTGTCA,0.162 ± 0.0054
6,AGTGTCTC,0.183 ± 0.047
7,CCGTTTAA,-0.145 ± 0.086
8,AATCCTCG,-0.0177 ± 0.0031
9,GATGTTGC,-0.0903 ± 0.014
10,ACAGACTC,-0.222 ± 0.028
11,CACCCACG,0.254 ± 0.036
12,ATATGGCA,0.0088 ± 0.064
13,GCTGCCAA,0.118 ± 0.066
14,CACACAGG,0.119 ± 0.044
15,AAATCGTA,0.0368 ± 0.024
16,GTGTGTGA,0.41536 ± 0.00023
17,GAATGGTA,-0.0684 ± 0.07
18,ATGGCAAC,0.037 ± 0.015
19,GTTCTTCA,-0.0618 ± 0.02
20,CACTGCAC,0.0832 ± 0.0064
